The source of these data is the supplement of paper PMC10600219.

The structures appear in SMILES notation. Counter-ions that a name gives are not always drawn. Whole data set: some 2,800 compounds, median “cell viability relative to vehicle” near 1.1, cut for the lowest 2% near 0.19. This is one part of the list.

The assay deals with NCI-H2228 parental. The experiment in a line: cell viability relative to vehicle (fraction of vehicle); NCI-H2228 is an ALK-positive lung cancer line and DTP means drug-tolerant persister; higher = less growth inhibition. Particulars: 100 nM; treatment time 6 days. The method in brief: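 NCI-H2228 parental cells and drug-tolerant persister cells were plated in 384-well plates; the persisters had been generated with 1000 nM of a targeted drug over 13 days. One day later, the 3114-agent TargetMol anti-cancer compound library was added at 100 nM, with DMSO serving as vehicle. ATP was measured 6 days after that using the CellTiter-Glo 3D Cell Viability Assay. Values are cell viability expressed relative to vehicle-treated cells.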
In the case of `C=C1C(=O)O[C@@H]2/C=C(\C)CC/C=C(\C)CC[C@@H]12` [Costunolide], the cell viability worked out at 1.13.

Regarding `c1ccc2c(Cc3c[nH]c4ccccc34)c[nH]c2c1` [3,3'-Diindolylmethane], the cell viability worked out at 1.16. With `CCC(=O)N1CCN(c2ccc(-n3c(=O)ccc4cnc5ccc(-c6cnc7ccccc7c6)cc5c43)cc2C(F)(F)F)CC1` [Torin 1] the figure was 0.306. Regarding `CO/N=C(\C(=O)N[C@@H]1C(=O)N2C(C(=O)OCOC(=O)C(C)(C)C)=C(/C=C\c3scnc3C)CS[C@H]12)c1csc(N)n1` [Cefditoren pivoxil], the cell viability was determined as 1.26. As for `COCc1c(-c2ccc(NC(=O)Nc3cc(C(F)(F)F)ccc3F)c(F)c2)c2c(N)ncnn2c1CN1CCOCC1`, the cell viability is 0.546. The result for `Cc1ccc(-c2ccc(F)cc2COc2ccc(CCC(=O)O)cc2)cc1` reads 1.1; that for `Cc1nc2ccc(-n3ncc(C(=O)c4cc5ccccc5[nH]4)c3N)cc2[nH]1`, 1.01.

Take `CCCCC(=O)O[C@H]1CC[C@H]2[C@@H]3CCc4cc(O)ccc4[C@H]3CC[C@]12C` [Estradiol valerate]: the cell viability amounted to 1.15.

Consider `N#Cc1c(O)c2c(-c3ccc(-c4ccccc4O)cc3)csc2[nH]c1=O`, for which the cell viability came to 0.969. With `CC(C)n1cnc2c(NCc3ccccc3)nc(NCCCO)nc21` [Bohemine] the figure was 1.08. With `O=C(OC[C@H]1O[C@@H](OC(=O)c2cc(O)c(O)c(OC(=O)c3cc(O)c(O)c(O)c3)c2)[C@H](OC(=O)c2cc(O)c(O)c(OC(=O)c3cc(O)c(O)c(O)c3)c2)[C@@H](OC(=O)c2cc(O)c(O)c(OC(=O)c3cc(O)c(O)c(O)c3)c2)[C@@H]1OC(=O)c1cc(O)c(O)c(OC(=O)c2cc(O)c(O)c(O)c2)c1)c1cc(O)c(O)c(OC(=O)c2cc(O)c(O)c(O)c2)c1` [Tannic acid] the figure was 1.03; with `N=C(N)c1ccc(OCCCCCOc2ccc(C(=N)N)cc2)cc1` [Pentamidine isethionate], 1.04. The result for `Cc1[nH]c2ccccc2c1CCNC(=O)c1cccs1` reads 1.06; that for `O=c1cc(-c2cccc3c2Sc2ccccc2S3)oc(N2CCOCC2)c1`, 1.16. Consider `Oc1ccc([C@H]2COc3cc(O)ccc3C2)cc1` [Equol], for which the cell viability worked out at 0.937.

On to `CN1CCc2c(c3ccccc3n2Cc2ccccc2)C1` [Mebhydrolin napadisylate], for which the cell viability amounted to 1.17.

As to `O=C([C@@H](Cc1cccc(C(F)(F)F)c1)NS(=O)(=O)c1cc(F)c2c(c1)CCNC2)N1CCCC1` [(R)-PFI-2 hydrochloride], the cell viability stood at 0.997. With `Nc1nc(Cl)nc2c1ncn2[C@H]1C[C@H](O)[C@@H](CO)O1` [Cladribine] the figure was 0.201. The result for `CC(C)(CNC(=O)c1cccc(-c2noc(C(F)(F)F)n2)c1)c1coc(-c2ccccc2)n1` reads 1.2; that for `CCCCCCCCC[C@H](O)CC(=O)CCc1ccc(O)c(OC)c1` [10-Gingerol], 1.08; that for `Cc1cccc(C(=O)O)c1O` [Hydroxytoluic acid], 1.33.

With `O=C(C=Cc1ccccc1)NC(NC(=S)Nc1ccc(Cl)cc1)C(Cl)(Cl)Cl` (stereo not drawn), the cell viability was 0.887. `C=C1CCC[C@]2(C)C=C3OC(=O)C(C)=C3C[C@@H]12` [Atractylenolide I]: the cell viability came to 1.07. As for `Cc1nc(Nc2cnn(C3CCNCC3)c2)nc2c1N(C)C(=O)c1cc3ccccc3cc1N2C`, the cell viability came out at 1.11.

As for `OCCOCCN1CCN(C2=Nc3ccccc3Sc3ccccc32)CC1` [Quetiapine Fumarate], the cell viability amounted to 1.07. Turning to `COc1cccc2c1C(=O)c1c(O)c3c(c(O)c1C2=O)C[C@@](O)(C(=O)CO)C[C@@H]3O[C@H]1C[C@H](N)[C@H](O)[C@H](C)O1` [Doxorubicin hydrochloride], the cell viability turned out to be 0.219.

On to `CCC(=O)O[C@@H](O[P@](=O)(CCCCc1ccccc1)CC(=O)N1C[C@H](C2CCCCC2)C[C@H]1C(=O)O)C(C)C` [Fosinopril sodium], for which the cell viability worked out at 0.975. The result for `CC1(C)S[C@@H]2[C@H](NC(=O)[C@H](N)c3ccc(O)cc3)C(=O)N2[C@H]1C(=O)O` [Amoxicillin trihydrate] reads 0.817; that for `COc1cc(-c2cn(C)c(=O)c3cnccc23)c(OC)cc1CN(C)C`, 1.07; that for `Cc1cc(C(=O)NOCCO)c(Nc2ccc(I)cc2F)n(C)c1=O`, 0.554. With `Cc1cc(-c2nnc(N)nc2-c2ccc(F)cc2)cc(Cl)n1` the figure was 1.03; with `COc1ccc2c(C)nc(Nc3nc(C)c(C)c(=O)[nH]3)nc2c1` [Madrasin], 1.1.

With `Cc1cc2c(cc1S(N)(=O)=O)S(=O)(=O)CCC2` [Meticrane], the cell viability was 0.924. With `COCCOc1cnc2ccn([C@H](C)c3nnc4c(F)cc(-c5cnn(C)c5)cn34)c(=O)c2c1` the figure was 1.06; with `Cc1c(NC(=O)c2cc(C(N)=O)nc3cc(F)ccc23)c(C(F)(F)F)nn1Cc1ccc(C#N)cc1`, 0.862. With `Clc1cnccn1` [2-Chloropyrazine] the figure was 1.04. The result for `Nc1nc2c(ncn2[C@@H]2O[C@H](CO)[C@@H](O)[C@H]2O)c(=O)[nH]1` [Guanosine] reads 1.11; that for `COC(=O)Nc1nc2cc(C(=O)c3ccccc3)ccc2[nH]1` [Mebendazole], 0.758. Take `CC(C)c1ccc2oc3nc(N)c(C(=O)O)cc3c(=O)c2c1` [Amlexanox]: the cell viability was determined as 1.12. The result for `CC1(C)S[C@@H]2[C@H](NC(=O)[C@H](NC(=O)N3CCNC3=O)c3ccccc3)C(=O)N2[C@H]1C(=O)O` [Azlocillin sodium] reads 1.06. The result for `CCn1c2ccccc2c2cc(Nc3ccnc(NCCCN4CCOCC4)n3)ccc21` reads 1.02.

Turning to `COc1ccc(-c2oc3cc(O)cc(O)c3c(=O)c2O)cc1` [kaempferide], the cell viability was 1.13. With `O=C1[C@H](Cc2ccc(O)cc2)N2C(=O)CCN(C(=O)NCc3ccccc3)[C@H]2CN1Cc1cccc2ccccc12` the figure was 1.11; with `O=C(O)c1cccnc1Nc1cccc(C(F)(F)F)c1` [Niflumic acid], 1.02; with `Cc1oncc1C(=O)Nc1ccc(C(F)(F)F)cc1` [Leflunomide], 0.955. With `COc1ccc(C(Cl)=C(c2ccc(OC)cc2)c2ccc(OC)cc2)cc1` [Chlorotrianisene] the figure was 0.908; with `Cc1cn([C@H]2O[C@@H](CO)[C@H](O)[C@H]2F)c(=O)[nH]c1=O` [Clevudine], 1.06; with `CCOC(=O)[C@H](CCc1ccccc1)N[C@@H](C)C(=O)N1Cc2ccccc2C[C@H]1C(=O)O` [Quinapril hydrochloride], 1.09.
